# Data published in the supplement of paper PMC3334620.
# Over roughly 33,000 sequences, “E-score (-0.5 to 0.5)” has its median near -0.01; the highest 2% begin near 0.26. This is one part of the list.
# Target: Ste12 (UniProt P13574)
# Assay: PBM E-score (8-mer binding enrichment) (E-score (-0.5 to 0.5)); higher = stronger / more preferred TF binding; most listed sequences are background and not binding sites
# Details: protein concentration: 200 nM; construct: GST-DNA-binding domain
# Experimental: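 Universal 'all 10-mer' protein binding microarrays (Agilent AMADID 015681) probed with GST-tagged S. cerevisiae TFs (full-length or DBD) made by in vitro transcription/translation (PURExpress), about 100-200 nM. Bound TF was detected with fluorescent anti-GST. Each ungapped 8-mer (which stands for itself and its reverse complement) is scored by the PBM enrichment score (E-score), a modified Wilcoxon-Mann-Whitney statistic from -0.5 to +0.5, computed with the Universal PBM Analysis Suite. Scale: above 0.35 generally sequence-specific binding.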
row,Sequence,PBM E-score
1,ACTCTCTG,-0.104
2,ATTTGTTC,0.266
3,CGCACGCC,-0.00703
4,AGGATTAG,-0.034
5,AAGGTGCG,-0.186
6,CCGGGACA,0.114
7,GCTGTACC,-0.0864
8,ACTCAGAA,0.156
9,AGGTTAAT,0.0966
10,AACGAGGG,0.0911
11,CTTATCTC,0.0842
12,CAGACCTG,-0.146
13,AAAGCAGT,0.19
14,GAGACAAC,0.0366
15,AGCTTACC,-0.0898
16,CCATCATA,-0.00778
17,GAGGTGAC,0.154
18,CGGAATGC,0.12
19,ACGTCACG,-0.0725
20,AATGGCCC,-0.174
21,GAGTGTCC,-0.141
22,AATAACCT,-0.0659
23,AGGCATAC,-0.305
24,ACATTCAA,0.0818
25,CGCTCACC,0.0234

row,Sequence,PBM E-score
1,GCTATACC,0.0717
2,AGCACCTG,-0.15
3,AACGGTCC,-0.193
4,AAACAAGC,0.202
5,ACCTGCCC,-0.0454
6,AATGCCAA,0.0861
7,TACTCGCA,-0.13
8,AAGCTACC,-0.0906
9,ACACTCAA,0.215
10,GTTACGGA,-0.0504
11,GACATCGA,-0.11
12,CGCACCGC,0.0733
13,ATCGAGGA,0.117
14,ATGTATTA,0.248
15,GGCCCGAC,0.15
16,AACTCTTA,0.0104
17,ACTGGAGA,-0.134
18,ATCACAAG,0.0283
19,TCGATCCA,-0.116
20,ATGCGCGA,-0.174
21,ATGCTTGA,-0.0711
22,AAAGACCC,-0.0691
23,ATCAGCAA,-0.0435
24,AGTAGTCA,-0.0774
25,CGGATCCA,0.0838

row,Sequence,PBM E-score
1,GCTGAAAA,0.17
2,AACACCAC,0.0391
3,CTATGAAC,-0.0289
4,GAAGGCTA,-0.133
5,GACGTGTA,-0.2
6,AACACGAA,0.22
7,CTCCCGGA,0.057
8,AAGATGCG,0.119
9,CTCTTTTC,0.163
10,CTGAGAAA,-0.0117
11,ATCCGATA,0.063
12,GGGTATCA,-0.132
13,CACGACAA,-0.0629
14,CTCCCCTC,0.28
15,AAGTACAA,0.171
16,AGAGGACT,-0.341
17,AGGTTTAC,-0.0517
18,AGACCAAC,-0.0795
19,CAAGGATG,-0.228
20,AAGAGCTA,-0.075
21,CTTGGCGA,-0.216
22,ACTCGCCC,-0.0798
23,GGCTCAAA,-0.119
24,CCAACCTC,-0.0214
25,AAAAATAT,0.339

row,Sequence,PBM E-score
1,GCGATCAC,-0.145
2,AATGCCGG,0.0373
3,TAATTAGA,0.161
4,AAGAAACC,0.0773
5,ACACGTTC,-0.0176
6,TGACATCA,0.0837
7,ACCATCGA,-0.00544
8,GTCAGCAA,0.0621
9,AGCCATTA,-0.0478
10,ACGGCCGG,-0.0141
11,TAAGCGAA,0.0168
12,AATCTTGC,0.162
13,ACATTTGA,0.221
14,TATAACCA,0.145
15,CTAAAGTC,-0.151
16,CCTGGAGC,0.0851
17,ACTATTAC,0.0443
18,CATAGGCC,-0.036
19,CTACATAA,-0.0741
20,GTTGCAAC,0.186
21,GAGAGAAA,0.0704
22,CCCGCGCG,0.114
23,CGGGTGAA,0.248
24,GGCCGGAC,-0.0603
25,GCCAGCTA,-0.192

row,Sequence,PBM E-score
1,AGTCCGGG,-0.0471
2,CGTCGCCA,-0.00322
3,CTGCCTAC,-0.0361
4,ATCCAGGG,-0.0741
5,GGACCCAA,-0.094
6,GCTATTCA,-0.164
7,TAACCGTA,0.0312
8,CGTTCACC,-0.0406
9,AAAACGTA,0.206
10,CCATTCCC,-0.0529
11,CGTGAACG,-0.225
12,CTAGGATA,0.0183
13,ACGCTATG,-0.151
14,GCTTTAAC,0.0246
15,ATAAATTG,0.321
16,ATTGATTG,0.0163
17,GACGGATC,-0.137
18,AATACGTG,0.0328
19,AGTATCTC,-0.143
20,AAAACATA,0.208
21,GACTTTGC,-0.111
22,ACCAGACC,0.031
23,CCAACGAC,-0.106
24,ATAACGAC,-0.0302
25,GGGGAATA,0.0166

row,Sequence,PBM E-score
1,TAAAACAA,0.261
2,GATTAATA,0.246
3,AAGATATT,0.132
4,GTATGTTA,0.166
5,CGACTCGC,-0.124
6,GATTAGTA,0.115
7,ACCTCCGG,0.119
8,AGAATCCA,-0.00207
9,GAGAATTA,0.128
10,GCGTCAGC,-0.17
11,GCTTGCCC,-0.0989
12,CGCTATAC,-0.0194
13,AGGCTACC,-0.246
14,ATGTTTTG,0.335
15,CAGTACGG,0.0442
16,GATTGGGC,-0.00183
17,GGAAAACA,0.177
18,CTCTATCA,0.0399
19,CAAACGTA,-0.052
20,ACTGACCT,-0.095
21,GTACCGTA,-0.00396
22,CGATAAAC,-0.0561
23,GTCTCAGA,0.214
24,CACGTTCA,-0.104
25,CCCGGTTC,-0.132

row,Sequence,PBM E-score
1,AAACCGCA,-0.0779
2,GACCCTGA,-0.128
3,CATCTATC,0.0653
4,TCGGGACA,0.00859
5,AGTAGGTG,0.182
6,TGCAGAAA,0.169
7,AGGACAAA,0.195
8,GCGCGATA,0.132
9,CGGAACGA,0.0799
10,GTCTAACA,-0.0889
11,ATTGAGTC,-0.0267
12,GTCTACGA,-0.261
13,AGTTGTCC,0.0255
14,AAATTGCA,0.103
15,GACCGCTC,-0.255
16,CTCTCCAG,-0.312
17,ACGGTGTC,-0.0965
18,CGATCTGA,0.012
19,ACAGCGGC,0.108
20,ACATATGT,-0.045
21,AGCTCCCC,-0.0998
22,ATCTTCAC,0.145
